Test results published in publication PMC4336329 (PLoS ONE, 2015).
The campaign covered roughly 310,000 compounds. About 14,000 (4.5%) showed an effect of 50% or more. Effects have a minus sign here. The list shows a part of the results.

biological target: human ether-à-go-go-related gene (hERG) potassium channel (human, UniProt Q12809); experiment: primary screen, population patch clamp on CHO cells stably expressing hERG
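Note: peak tail current of the secondary pulse compared with the same well before compound.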

Chain of human ether-à-go-go-related gene (hERG) potassium channel (Q12809 whole entry, looked up): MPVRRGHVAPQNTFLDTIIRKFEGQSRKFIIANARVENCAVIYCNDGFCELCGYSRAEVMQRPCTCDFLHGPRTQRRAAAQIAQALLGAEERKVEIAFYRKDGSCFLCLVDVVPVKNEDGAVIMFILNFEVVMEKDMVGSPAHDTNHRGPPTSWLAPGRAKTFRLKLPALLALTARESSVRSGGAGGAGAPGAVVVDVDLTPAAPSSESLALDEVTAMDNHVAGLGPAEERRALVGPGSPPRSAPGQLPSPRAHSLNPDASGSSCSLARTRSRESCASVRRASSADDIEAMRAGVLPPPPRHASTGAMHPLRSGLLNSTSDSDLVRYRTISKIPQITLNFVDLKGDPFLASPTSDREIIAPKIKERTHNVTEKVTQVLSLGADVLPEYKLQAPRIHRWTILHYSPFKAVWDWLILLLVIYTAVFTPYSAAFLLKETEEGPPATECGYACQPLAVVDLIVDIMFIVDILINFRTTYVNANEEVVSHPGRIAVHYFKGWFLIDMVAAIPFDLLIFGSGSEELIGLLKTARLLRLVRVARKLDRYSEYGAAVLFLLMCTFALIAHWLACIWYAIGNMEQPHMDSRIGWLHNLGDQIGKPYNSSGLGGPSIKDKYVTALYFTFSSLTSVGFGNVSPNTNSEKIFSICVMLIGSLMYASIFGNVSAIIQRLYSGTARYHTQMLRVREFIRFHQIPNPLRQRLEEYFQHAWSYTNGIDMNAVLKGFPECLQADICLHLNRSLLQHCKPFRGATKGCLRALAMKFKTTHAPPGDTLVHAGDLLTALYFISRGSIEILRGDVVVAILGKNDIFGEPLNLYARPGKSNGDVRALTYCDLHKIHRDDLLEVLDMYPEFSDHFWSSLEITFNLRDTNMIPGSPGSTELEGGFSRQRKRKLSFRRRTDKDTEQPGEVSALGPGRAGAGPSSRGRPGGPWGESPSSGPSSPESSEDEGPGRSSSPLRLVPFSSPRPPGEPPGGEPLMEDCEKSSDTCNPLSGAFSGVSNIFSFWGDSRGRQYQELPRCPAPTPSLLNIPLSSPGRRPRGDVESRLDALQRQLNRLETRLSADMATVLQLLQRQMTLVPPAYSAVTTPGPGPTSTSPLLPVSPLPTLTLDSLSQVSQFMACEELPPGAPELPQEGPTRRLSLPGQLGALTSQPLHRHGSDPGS

| SMILES | hERG current change (%, negative = inhibition) at 10uM [%] |
| --- | --- |
| Cc1ccccc1NC(=O)C(C)n1c2ccccc2c2nc(=O)cc(C)n21 (stereo not drawn) | -15.4 |
| CCCCCC(C(=O)O)C(C)CC(=O)NC1CCCCC1 (stereo not drawn) | 4.26 |
| CC(=O)c1ccc(NS(=O)(=O)c2ccc(N)cc2)cc1 | 9.67 |
| Cc1cccc2c1N(C(=O)c1ccco1)C(C)(C)c1ssc(=S)c1-2 | 11.8 |
| CC(C)(C)NC(=O)C(c1ccc(O)cc1)N(C(=O)CCC(=O)Nc1nccs1)c1ccccc1F (stereo not drawn) | 23.9 |
| COc1ccc(-c2nnc(OCc3ccccc3)c3ccccc23)cc1 | 1.82 |
| COc1ccc2nc(NC(=O)CSc3nnc4n3C(C)(C)Cc3ccccc3-4)sc2c1 | 0.248 |
| COc1ccc(NN=Nc2nc3c([nH]2)c(=O)n(C)c(=O)n3C)cc1 | -0.185 |
| CCOC(=O)c1nc(C)sc1-c1ccnn1S(=O)(=O)c1ccc(Cl)cc1Cl | -13.6 |
| CCO[C@@H]1OC(C(=O)NC2CC2)=C[C@H](c2c[nH]c3ccccc23)[C@H]1CCCO | -1.3 |
| O=C(N/N=C/c1ccc(OC2CSC2)cc1)c1ccc(CN2CCOCC2)cc1 | -4.19 |
| COc1ccc(OC)c(/C=C/C(=O)Oc2ccc(C(C)=O)cc2)c1 | 13.8 |
| CC(C)/C=N/NC(=O)c1cc(Br)ccc1O | -12.9 |
| NC(=O)CC(NC(=O)Cc1ccc(Cl)cc1)c1ccc(NCc2ccccc2)c([N+](=O)[O-])c1 (stereo not drawn) | 1.16 |
| O=C(COC(=O)c1ccc(S(=O)(=O)N2CCCCCC2)cc1)NCc1ccc(Cl)cc1 | -2.25 |
| O=[N+]([O-])c1cc([N+](=O)[O-])c(N2CCCCCC2)cc1NCCO | -13.4 |
| Cc1ccc(/C=C/S(=O)(=O)NCC(=O)OCC(=O)NCc2ccccc2)cc1 | 5.21 |
| CN1CCN(C(=O)c2cnn(-c3ccccc3)c2NC(=O)c2ccccc2Cl)CC1 | 7.13 |
| COC(=O)C1=CNC=C(C(=O)OC)C1c1cccc2ccccc12 | -18.2 |
| O=C1c2ccccc2C(=O)N1C/C=C/c1ccccc1 | 13.2 |
| Cc1cccc(C(=O)Nc2ccc(CC(=O)O)cc2)c1 | 1.61 |
| COC(=O)c1ccc(NC(=O)c2ccc3nc(C)sc3c2)cc1 | 15.8 |

| SMILES | hERG current change (%, negative = inhibition) at 10uM [%] |
| --- | --- |
| CSC(=NC#N)N1CCN(C(=NC#N)SC)CC1 | -1.88 |
| COc1ccc(NC(=S)Nc2cc(C(F)(F)F)ccc2F)cc1 | -13.7 |
| O=C(Cc1ccc(F)cc1)NCCc1ccccc1 | -1.11 |
| COc1ccc2c(c1)CC/C(=C/c1ccco1)C2=O | 10.7 |
| CCCC[C@@H]1CNC(=O)C(=O)N1CCCc1cc(OC)c(OC)c(OC)c1 | 21.5 |
| c1ccc(-c2cnnc(-c3ccccn3)n2)cc1 | -0.697 |
| COc1ccc(NC(=O)CCN2CCC(C)CC2)cc1 | 3.31 |
| COCC(=O)N(Cc1cc2cc(C)ccc2[nH]c1=O)c1cccc(C)c1C | 12.4 |
| Cc1ccc(CCN2CCN=C2N(C)C)cc1 | -9.28 |
| COCC(C)NC(=S)NCCc1ccc(Cl)cc1Cl (stereo not drawn) | -5.65 |
| Cc1nnc(SCC(=O)NC2CCCC2)n1CCc1ccccc1 | -34.1 |
| Cc1ccc(S(=O)(=O)N2CCN(S(=O)(=O)c3ccc4c(c3)OCCO4)CC2)cc1 | 8.43 |
| O=Cc1cn(-c2ccccc2)nc1-c1ccc(F)cc1 | 2.99 |
| Cc1ccc2oc(=O)n(CCC(=O)Nc3ccc(N4CCOCC4)cc3)c2c1 | 3.65 |
| O=C(Nc1ccc(C(F)(F)F)cc1-c1ccccc1)c1ccccc1 | 4.22 |
| NNC(=O)C(=O)/C=C1\NC2(CCCC2)Cc2ccccc21 | -1.65 |
| CCc1ccc(Nc2nc(N)nc(CSc3nnnn3-c3ccccc3)n2)cc1 | 18.8 |
| COCCNC(=O)CSc1nc(-c2ccc(OC)c(OC)c2)cc(C(F)(F)F)n1 | 0.324 |
| Cc1cccc(NC(=O)N2CCC(NC(=O)c3ccco3)CC2)c1 | 0.0645 |
| O=S(=O)(Nc1ccc(F)cc1)N1CCOCC1 | 17.9 |
| O=C(NCc1cccnc1)C1CCC(CNS(=O)(=O)c2ccc(Cl)cc2)CC1 (stereo not drawn) | -21.9 |
| CN(CC(=O)Nc1cccc(F)c1)C(=O)c1ccccc1Cc1ccccc1 | 4.55 |

| SMILES | hERG current change (%, negative = inhibition) at 10uM [%] |
| --- | --- |
| COC(=O)c1ccc(Oc2cc(C)nc(-n3nc(C)cc3C)n2)cc1 | -22.4 |
| Cc1nc2ccccc2n1/C(=N/S(=O)(=O)c1ccc(Br)cc1)c1ccccc1 | 15.9 |
| CCOC(=O)N1CCN(c2c(NCCc3ccc(C)cc3)c(=O)c2=O)CC1 | 2.15 |
| O=C(Nc1ccccc1)N1N=C(c2cccs2)CC1c1cccs1 (stereo not drawn) | -47.4 |
| Cc1oc(-c2cccc(Cl)c2)nc1CN1CCC(C(=O)NCCCN2CC(C)CC(C)C2)CC1 (stereo not drawn) | -21.4 |
| Cc1ccccc1C(=O)NNC(=O)CSc1nnc(-c2ccncc2)n1-c1ccccc1 | 0.612 |
| Cc1ccc(NC(=O)Cn2nnc(-c3ccccc3-n3cnnn3)n2)c(C)c1 | -4.12 |
| O=C(CCC(=O)N(CC(=O)NC1CCCC1)Cc1ccc(F)cc1)Nc1nccs1 | -13.6 |
| CC1CCN(CCCn2c(=S)[nH]c3c(sc4ccc([N+](=O)[O-])cc43)c2=O)CC1.Cl | 7.17 |
| CCCCN(C)CCNC(=O)CN1C(=O)CSc2ccc(S(=O)(=O)N3CCCCC3)cc21 | -50.6 |
| N#C/C(=C\c1ccncc1)C(=O)Nc1ccc(C(=O)O)cc1 | 10.6 |
| COc1ccc(NC(=O)COc2cccc(-n3cnnn3)c2)cc1 | -54.3 |
| COc1cccc(C(=O)O/N=C(\C)c2cnccn2)c1 | -4.55 |
| C=CCSc1nc(C)c(CC(=C)C)c(=O)[nH]1 | 19.4 |
| COCCn1c(SCC(=O)Nc2ccc(OC)cc2)nnc1-c1ccoc1C | -3.58 |
| COc1ccc(-c2cccc(NS(=O)(=O)c3ccc([N+](=O)[O-])cc3)c2)nn1 | -15.2 |
| CCC/C(O)=C1\C(=O)CCCC1=NCCc1c(C)[nH]c2ccccc12 | -17.7 |
| Cc1ccc(C2CC(=O)c3cnc(N4CCc5ccccc5C4)nc3C2)cc1 (stereo not drawn) | 2.58 |
| COCn1cnc(-c2ccccc2)c1-c1ccccc1 | -3.24 |
| Cc1ccc(C)c(S(=O)(=O)N2CCCC2CNC(=O)C(=O)NCCc2ccco2)c1 (stereo not drawn) | -21.2 |
| CCCC(C(=O)NCc1ccc(OC)cc1)N(Cc1ccco1)C(=O)c1snc(C(N)=O)c1N (stereo not drawn) | -41.1 |
| COC(=O)c1ccc(N2C(=O)CC(N(C)CCc3ccc(OC)c(OC)c3)C2=O)cc1 (stereo not drawn) | 11 |

| SMILES | hERG current change (%, negative = inhibition) at 10uM [%] |
| --- | --- |
| Cc1ccccc1N=Cc1cccc(O)c1O | 22 |
| COc1ccc2c(c1OC)C(=O)O[C@@H]2[C@H]1c2cc3c(cc2CCN1C)OCO3.Cl | -39 |
| CC(C)c1ccccc1NC(=O)COC(=O)CNC(=O)c1ccc(Br)cc1 | -15.8 |
| CCCn1c(N)c(N(CCOC)C(=O)c2ccc(N3CCCC3=O)cc2)c(=O)[nH]c1=O | 30.6 |
| CCNC(=S)NCCC1=c2ccccc2=N/C1=C\c1c(O)n(C)c(=O)n(C)c1=O | 26.5 |
| C=CCNC(=O)C1CCCN(S(C)(=O)=O)C1 (stereo not drawn) | 13.7 |
| CCCCCCn1c(CN2CCCCC2C)nc2c1c(=O)n(C)c(=O)n2C (stereo not drawn) | -60.5 |
| CCOCCn1c(N2CCN(c3ccc(OC)cc3)CC2)nc2c1c(=O)[nH]c(=O)n2C | -30.3 |
| NC(=O)CN1C(=O)C(=O)N(Cc2ccccc2Cl)C1=O | 8.45 |
| CCSc1nc2ccccc2n1C(=O)c1ccc(S(=O)(=O)N2CCCCCC2)cc1 | -13.4 |
| COc1ccc2oc(C(=O)OCC(=O)Nc3cccc(S(=O)(=O)N4CCOCC4)c3)c(C)c2c1 | -46.9 |
| O=C(NC1=NCCS1)c1csc2ccccc12 | -13.1 |
| Cc1cnc(NS(=O)(=O)c2ccccc2)c(C)n1 | 19.5 |
| CCCCNS(=O)(=O)NC(=O)C1=C(N2CCCC2)COC1=O | 6.34 |
| Cc1c(N2C(=O)CSC2c2ccc([N+](=O)[O-])cc2)c(=O)n(-c2ccccc2)n1C (stereo not drawn) | -6.57 |
| Cc1ccc2nc(-c3ccc(NC(=O)CSc4ccccc4)cc3)[nH]c2c1 | 14.1 |
| COc1ccc(S(=O)(=O)Nc2nc3ccccc3nc2NCC2CCCO2)cc1 (stereo not drawn) | 5.29 |
| CCOC(=O)Cn1c(=NC(=O)C2CC2)sc2c(C)cc(C)cc21 | 14.8 |
| Cc1cc(NC(=O)CSc2ccc(-c3ccc4c(c3)OCO4)nn2)no1 | 22.2 |
| O=C(OCC#Cc1c(COC(=O)c2ccccc2)nnn1Cc1ccccc1)c1ccccc1 | 5.67 |
| CC1=NN(c2ccccc2)C(=O)C1(C)[N+](=O)[O-] (stereo not drawn) | 11.9 |
